These are yes or no findings as the source states them, for the method shown. In cells and extracts the contact can be indirect. Some results given as binding are weak or reduced against the parent protein; the word gives no strength. For some assays here: Where a sequence is shown, tags or fusion partners need not be part of it.
T1: EGFP-tagged wild-type KIND2 (EGFP–KIND2-WT) (mouse) (UniProt Q8CIB5)
T1 sequence: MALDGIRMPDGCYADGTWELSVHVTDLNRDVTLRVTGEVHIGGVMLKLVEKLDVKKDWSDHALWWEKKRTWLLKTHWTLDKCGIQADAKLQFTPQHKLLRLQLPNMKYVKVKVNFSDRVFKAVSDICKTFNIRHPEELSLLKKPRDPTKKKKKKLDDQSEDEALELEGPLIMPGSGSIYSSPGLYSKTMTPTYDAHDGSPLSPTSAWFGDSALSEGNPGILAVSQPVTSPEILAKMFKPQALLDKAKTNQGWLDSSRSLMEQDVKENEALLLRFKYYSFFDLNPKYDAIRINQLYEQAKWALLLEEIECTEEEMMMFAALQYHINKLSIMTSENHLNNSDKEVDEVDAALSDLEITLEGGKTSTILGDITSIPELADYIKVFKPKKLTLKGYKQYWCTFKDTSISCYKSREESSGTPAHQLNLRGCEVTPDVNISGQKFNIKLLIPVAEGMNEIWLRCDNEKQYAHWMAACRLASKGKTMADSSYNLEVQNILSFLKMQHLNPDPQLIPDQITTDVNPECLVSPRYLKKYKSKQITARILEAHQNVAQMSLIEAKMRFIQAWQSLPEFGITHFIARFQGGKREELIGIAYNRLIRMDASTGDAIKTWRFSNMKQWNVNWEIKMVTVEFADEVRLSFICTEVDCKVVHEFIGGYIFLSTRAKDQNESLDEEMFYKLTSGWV

By UniProt entry, the sequences of proteins in these tests, tags left out. Where a name states a change or a piece, a line headed by the entry shows the natural chain unless it says otherwise.
UniProt Q8IWT3: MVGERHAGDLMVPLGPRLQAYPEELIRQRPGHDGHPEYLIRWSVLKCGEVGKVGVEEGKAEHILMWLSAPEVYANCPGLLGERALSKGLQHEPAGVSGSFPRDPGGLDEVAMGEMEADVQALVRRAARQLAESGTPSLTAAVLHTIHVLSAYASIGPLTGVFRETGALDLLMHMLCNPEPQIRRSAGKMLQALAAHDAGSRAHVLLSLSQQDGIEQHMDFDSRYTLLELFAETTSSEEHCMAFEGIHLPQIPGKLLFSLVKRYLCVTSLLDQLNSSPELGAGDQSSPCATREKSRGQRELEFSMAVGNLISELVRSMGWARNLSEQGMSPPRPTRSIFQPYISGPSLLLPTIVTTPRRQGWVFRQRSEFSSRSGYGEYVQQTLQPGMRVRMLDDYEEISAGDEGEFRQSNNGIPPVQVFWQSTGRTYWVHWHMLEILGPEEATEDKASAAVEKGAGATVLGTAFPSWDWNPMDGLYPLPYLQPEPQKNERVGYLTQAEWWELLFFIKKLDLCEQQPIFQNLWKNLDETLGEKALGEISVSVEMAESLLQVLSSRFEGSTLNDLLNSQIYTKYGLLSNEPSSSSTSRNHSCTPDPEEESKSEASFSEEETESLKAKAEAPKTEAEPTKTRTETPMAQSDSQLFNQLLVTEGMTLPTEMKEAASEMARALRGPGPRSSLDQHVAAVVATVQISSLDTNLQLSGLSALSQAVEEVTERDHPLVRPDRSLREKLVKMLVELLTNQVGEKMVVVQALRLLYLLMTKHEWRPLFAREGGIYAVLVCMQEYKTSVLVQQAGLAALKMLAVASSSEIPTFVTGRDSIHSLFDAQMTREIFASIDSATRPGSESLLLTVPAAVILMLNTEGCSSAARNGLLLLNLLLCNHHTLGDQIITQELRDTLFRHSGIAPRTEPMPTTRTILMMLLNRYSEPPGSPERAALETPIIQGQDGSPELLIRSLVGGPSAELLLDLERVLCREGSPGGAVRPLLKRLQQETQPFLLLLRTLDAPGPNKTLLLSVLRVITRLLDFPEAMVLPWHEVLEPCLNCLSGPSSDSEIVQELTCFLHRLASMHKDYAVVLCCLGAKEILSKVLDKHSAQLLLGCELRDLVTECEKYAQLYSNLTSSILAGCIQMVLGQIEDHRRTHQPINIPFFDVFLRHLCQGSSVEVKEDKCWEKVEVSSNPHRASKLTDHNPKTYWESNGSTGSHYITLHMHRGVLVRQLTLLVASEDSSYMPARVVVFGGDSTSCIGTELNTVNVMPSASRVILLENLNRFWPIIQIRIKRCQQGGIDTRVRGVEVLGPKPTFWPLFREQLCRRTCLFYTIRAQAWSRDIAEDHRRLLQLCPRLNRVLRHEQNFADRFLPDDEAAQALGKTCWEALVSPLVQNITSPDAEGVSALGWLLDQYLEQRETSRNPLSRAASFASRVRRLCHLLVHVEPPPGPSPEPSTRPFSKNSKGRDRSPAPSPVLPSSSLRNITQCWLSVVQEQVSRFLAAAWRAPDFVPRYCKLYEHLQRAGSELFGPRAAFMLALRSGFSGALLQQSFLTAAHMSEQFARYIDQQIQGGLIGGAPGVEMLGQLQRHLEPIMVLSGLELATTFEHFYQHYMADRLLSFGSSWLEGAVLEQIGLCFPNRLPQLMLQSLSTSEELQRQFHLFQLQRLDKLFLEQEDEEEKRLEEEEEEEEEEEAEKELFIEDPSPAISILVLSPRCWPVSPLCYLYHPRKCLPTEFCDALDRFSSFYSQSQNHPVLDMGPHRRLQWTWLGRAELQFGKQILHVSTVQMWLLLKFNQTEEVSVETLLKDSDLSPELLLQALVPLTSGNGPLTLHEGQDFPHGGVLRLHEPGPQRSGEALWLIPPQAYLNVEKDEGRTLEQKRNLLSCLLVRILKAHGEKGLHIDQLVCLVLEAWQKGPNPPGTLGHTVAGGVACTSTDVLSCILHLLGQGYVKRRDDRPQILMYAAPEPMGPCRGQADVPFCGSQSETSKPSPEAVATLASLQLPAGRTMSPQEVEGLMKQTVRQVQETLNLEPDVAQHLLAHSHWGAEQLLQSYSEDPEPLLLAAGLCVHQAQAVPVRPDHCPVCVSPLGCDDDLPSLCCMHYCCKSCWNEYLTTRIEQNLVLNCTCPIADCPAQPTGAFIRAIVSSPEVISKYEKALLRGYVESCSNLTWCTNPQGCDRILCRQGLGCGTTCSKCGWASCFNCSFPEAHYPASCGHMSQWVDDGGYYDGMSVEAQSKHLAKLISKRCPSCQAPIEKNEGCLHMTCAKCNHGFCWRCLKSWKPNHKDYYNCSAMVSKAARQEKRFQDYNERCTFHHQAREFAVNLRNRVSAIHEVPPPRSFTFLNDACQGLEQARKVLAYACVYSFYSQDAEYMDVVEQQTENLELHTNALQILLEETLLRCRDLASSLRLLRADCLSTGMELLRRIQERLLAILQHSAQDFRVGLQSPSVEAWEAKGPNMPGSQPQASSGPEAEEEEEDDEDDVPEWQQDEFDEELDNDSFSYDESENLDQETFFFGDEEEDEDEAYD
UniProt P06493: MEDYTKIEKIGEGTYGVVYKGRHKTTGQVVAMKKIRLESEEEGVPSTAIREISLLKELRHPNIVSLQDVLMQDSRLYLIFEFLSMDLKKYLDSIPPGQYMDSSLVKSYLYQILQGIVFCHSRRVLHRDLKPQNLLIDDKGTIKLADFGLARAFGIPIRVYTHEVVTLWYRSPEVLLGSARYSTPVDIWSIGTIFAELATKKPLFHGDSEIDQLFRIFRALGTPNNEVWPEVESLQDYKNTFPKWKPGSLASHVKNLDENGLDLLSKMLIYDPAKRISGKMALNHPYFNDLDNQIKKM
UniProt P20248: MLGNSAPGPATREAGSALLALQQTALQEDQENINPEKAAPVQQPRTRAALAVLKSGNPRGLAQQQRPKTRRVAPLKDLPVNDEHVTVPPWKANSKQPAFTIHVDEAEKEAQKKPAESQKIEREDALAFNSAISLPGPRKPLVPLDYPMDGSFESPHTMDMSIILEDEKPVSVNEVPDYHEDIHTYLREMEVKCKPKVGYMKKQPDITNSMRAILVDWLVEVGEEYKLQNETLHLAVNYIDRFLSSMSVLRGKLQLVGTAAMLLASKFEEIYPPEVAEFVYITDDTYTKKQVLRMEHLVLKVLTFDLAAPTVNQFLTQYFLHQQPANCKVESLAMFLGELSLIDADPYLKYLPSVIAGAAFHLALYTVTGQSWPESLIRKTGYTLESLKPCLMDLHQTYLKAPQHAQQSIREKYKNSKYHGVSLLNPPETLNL

B1: FBXL10 (protein, UniProt Q8NHM5 1-1336)
chain: MAGPQMGGSAEDHPPRKRHAAEKQKKKTVIYTKCFEFESATQRPIDRQRYDENEDLSDVEEIVSVRGFSLEEKLRSQLYQGDFVHAMEGKDFNYEYVQREALRVPLIFREKDGLGIKMPDPDFTVRDVKLLVGSRRLVDVMDVNTQKGTEMSMSQFVRYYETPEAQRDKLYNVISLEFSHTKLEHLVKRPTVVDLVDWVDNMWPQHLKEKQTEATNAIAEMKYPKVKKYCLMSVKGCFTDFHIDFGGTSVWYHVFRGGKIFWLIPPTLHNLALYEEWVLSGKQSDIFLGDRVERCQRIELKQGYTFFIPSGWIHAVYTPVDSLVFGGNILHSFNVPMQLRIYEIEDRTRVQPKFRYPFYYEMCWYVLERYVYCVTQRSHLTQEYQRESMLIDAPRKPSIDGFSSDSWLEMEEEACDQQPQEEEEKDEEGEGRDRAPKPPTDGSTSPTSTPSEDQEALGKKPKAPALRFLKRTLSNESEESVKSTTLAVDYPKTPTGSPATEVSAKWTHLTEFELKGLKALVEKLESLPENKKCVPEGIEDPQALLEGVKNVLKEHADDDPSLAITGVPVVTWPKKTPKNRAVGRPKGKLGPASAVKLAANRTTAGARRRRTRCRKCEACLRTECGECHFCKDMKKFGGPGRMKQSCIMRQCIAPVLPHTAVCLVCGEAGKEDTVEEEEGKFNLMLMECSICNEIIHPGCLKIKESEGVVNDELPNCWECPKCNHAGKTGKQKRGPGFKYASNLPGSLLKEQKMNRDNKEGQEPAKRRSECEEAPRRRSDEHSKKVPPDGLLRRKSDDVHLRKKRKYEKPQELSGRKRASSLQTSPGSSSHLSPRPPLGSSLSPWWRSSLTYFQQQLKPGKEDKLFRKKRRSWKNAEDRMALANKPLRRFKQEPEDELPEAPPKTRESDHSRSSSPTAGPSTEGAEGPEEKKKVKMRRKRRLPNKELSRELSKELNHEIQRTENSLANENQQPIKSEPESEGEEPKRPPGICERPHRFSKGLNGTPRELRHQLGPSLRSPPRVISRPPPSVSPPKCIQMERHVIRPPPISPPPDSLPLDDGAAHVMHREVWMAVFSYLSHQDLCVCMRVCRTWNRWCCDKRLWTRIDLNHCKSITPLMLSGIIRRQPVSLDLSWTNISKKQLSWLINRLPGLRDLVLSGCSWIAVSALCSSSCPLLRTLDVQWVEGLKDAQMRDLLSPPTDNRPGQMDNRSKLRNIVELRLAGLDITDASLRLIIRHMPLLSKLHLSYCNHVTDQSINLLTAVGTTTRDSLTEINLSDCNKVTDQCLSFFKRCGNICHIDLRYCKQVTKEGCEQFIAEMSVSVQFGQVEEKLLQKLS

Columns and labels:
[1] = target: T1, EGFP-tagged wild-type KIND2 (EGFP–KIND2-WT) (mouse); assay: co-IP; GFP nanotrap beads (Chromotek), 3 h at 4 °C, lysates of STLC-arrested mitotic HeLa cells expressing EGFP–KIND2; 10 mM Tris-HCl, 150 mM NaCl, 0.5 mM EDTA, 0.5% NP-40; WB for CDK1, cyclin B1 and cyclin A2
[2] = target: T1, EGFP-tagged wild-type KIND2 (EGFP–KIND2-WT) (mouse); assay: condition: only untreated (not STLC-arrested) HeLa cells; co-IP; GFP nanotrap beads (Chromotek), 3 h at 4 °C, lysates of untreated HeLa cells expressing EGFP–KIND2; 10 mM Tris-HCl, 150 mM NaCl, 0.5 mM EDTA, 0.5% NP-40; WB for CDK1, cyclin B1 and cyclin A2
[3] = target: T1, EGFP-tagged wild-type KIND2 (EGFP–KIND2-WT) (mouse); assay: co-IP; GFP nanotrap beads (Chromotek), 3 h at 4 °C, lysates of untreated HeLa cells expressing EGFP–KIND2; 10 mM Tris-HCl, 150 mM NaCl, 0.5 mM EDTA, 0.5% NP-40; WB for CDK1, cyclin B1 and cyclin A2
[4] = target: cullin 9 (CUL9) (human (endogenous in HeLa)) (UniProt Q8IWT3); assay: co-IP; anti-CUL9 antibody overnight at 4 °C, protein A/G agarose beads, lysates of untreated and STLC-arrested mitotic HeLa cells (also cells expressing EGFP-tagged KIND2 constructs); WB for CUL9, FBXL10, KIND2 or GFP

Molecule	binding [1]	binding [2]	binding [3]	binding [4]
CDK1–cyclin B1 complex (from UniProt P06493 1-297; P14635 1-433)	binds	no binding		
cyclin A2 (from UniProt P20248 1-432)	no binding		no binding	
B1				binds
